# Sequences with one replicate were seen in a single cluster, so their values are uncertain.
# Test system: ATP
# Test: switch fluorescence ratio, 500 uM ATP over buffer (Cy3 cluster intensity, sum of 5 cycles each) (fold (ratio)); higher = stronger signal-on switching upon ATP binding; sequences stand for … in TCGTCGGCAGCGTCAGATGTGTATAAGAGACAGTTTTTTTTTTTTTTTTTTTTTTTTT…TC
# Conditions: aptamer strand: ATP DNA aptamer (quencher-CACCTGGGGGAGTATTGCGGAGGAAGG + anchor), 100 nM annealed; ATP concentration: 500 uM; one replicate
# Method in brief: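 Cy3-labelled switching-strand clusters on a modified Illumina MiSeq flow-cell were annealed to 100 nM quencher-labelled ATP aptamer and imaged first in selection buffer, then after 15 min with 500 uM ATP at 22 °C. NaOH stripping and re-annealing separated each of five buffer/ATP cycles, and clusters outside 100-1000 RFU were excluded. The fluorescence ratio sums target-cycle Cy3 intensity over buffer-cycle Cy3 intensity per cluster and averages it per switch-domain sequence.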
# 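Note: ATP exposure 15 min at 22 °C before imaging.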
row,Sequence,switch fluorescence ratio
1,GACAAGATGT,0.964
2,GACAAGCGAG,1.03
3,GACAAGGGC,1.02
4,GACAATAAC,1.31
5,GACAATTCCG,1.02
6,GACAATTGGA,1.05
7,GACACAAAGA,1.69
8,GACACCTTCT,1.5
9,GACAGAACAC,1.11
10,GACAGCCATA,1.04
11,GACAGCCGTT,1.01
12,GACAGCGAAT,1.13
13,GACAGCTGGG,1.01
14,GACAGTTATG,0.955
15,GACATAAGA,0.983
16,GACATAGGAT,0.937
17,GACATCGGAG,0.984
18,GACATCTGGT,0.951
19,GACATGCAAT,1.6
20,GACATTCCTT,1.13
21,GACATTTCAA,0.951
22,GACATTTTAG,1.05
23,GACCACTAAT,1.04
24,GACCAGGGTC,1.03
25,GACCAGTGGG,1.04
26,GACCCTAGGC,0.979

row,Sequence,switch fluorescence ratio
1,GACCCTGCTT,0.972
2,GACCGA,1.06
3,GACCGAGAAT,1.03
4,GACCGATGGT,0.995
5,GACCGCGA,1.87
6,GACCGGAAAA,1.05
7,GACCGGAGAT,1.04
8,GACCGGTATA,0.99
9,GACCGTGCTG,0.917
10,GACCTACGCT,1.73
11,GACCTAGATT,0.997
12,GACCTCGGCT,1.09
13,GACCTGGCCG,1.11
14,GACCTTGCT,1.79
15,GACGAATGTT,0.974
16,GACGAGAAAC,1.26
17,GACGAGAAAT,1.74
18,GACGATAATT,1.08
19,GACGCATTGA,3.09
20,GACGCCGAC,1.82
21,GACGCGAGGG,0.965
22,GACGCGGGAG,1.34
23,GACGGAGCGG,3.37
24,GACGGCTGAC,1.05
25,GACGGGCTAC,1.92
26,GACGGGGTTC,0.989

row,Sequence,switch fluorescence ratio
1,GACGGTATGT,1.04
2,GACGGTCAAG,1.01
3,GACGGTCCAG,1
4,GACGGTTTTG,1.01
5,GACGTCAAT,1.06
6,GACGTCATCG,0.912
7,GACGTCTATG,1.01
8,GACGTCTCGC,1.06
9,GACGTGCGCT,1.11
10,GACTAAACAG,1.01
11,GACTAAAGTT,1.01
12,GACTATTGAC,1.07
13,GACTCAATTG,1.02
14,GACTCCAGAA,1.33
15,GACTCCAGAT,1.22
16,GACTCCTGCG,1.07
17,GACTCGAGCC,1.01
18,GACTCTCGTG,1
19,GACTCTTATT,0.998
20,GACTGAAATG,0.999
21,GACTGATGTC,0.986
22,GACTGCCTGT,1.04
23,GACTGCGACC,1.29
24,GACTGCGCTT,1.49
25,GACTGGCTAT,1.01
26,GACTGGTTGT,0.99

row,Sequence,switch fluorescence ratio
1,GACTGTCTTG,0.957
2,GACTTACTGT,1.12
3,GACTTCGGTA,1.07
4,GACTTGCAGG,1.06
5,GACTTGCCAA,1.11
6,GACTTTGTGT,1
7,GAGAAATAGG,1.04
8,GAGAACACAT,1.04
9,GAGAAGTTCG,0.974
10,GAGAATACGG,1.13
11,GAGAATAGGG,1.03
12,GAGAATCATT,0.999
13,GAGAATTTCG,1.01
14,GAGACAATGT,1.02
15,GAGACAGCAT,1.05
16,GAGACATT,0.963
17,GAGACCGGTT,1.03
18,GAGACCGTTC,0.986
19,GAGACCTCGA,1.02
20,GAGACTGTAG,1.02
21,GAGACTTAAT,0.957
22,GAGAGAAATG,0.973
23,GAGAGAGTGT,0.961
24,GAGAGATAAG,1
25,GAGAGGATGA,1.02
26,GAGAGGGGCG,1.11

row,Sequence,switch fluorescence ratio
1,GAGAGGGGTT,1.05
2,GAGAGTCGTT,0.988
3,GAGAGTGTGG,0.965
4,GAGAGTTCGA,1.01
5,GAGATACTA,1.01
6,GAGATATAC,1.14
7,GAGATCAAA,0.971
8,GAGATCCC,1.02
9,GAGATCGGGT,0.993
10,GAGATCGTTG,1.04
11,GAGATGAAAG,1.06
12,GAGATGAATG,1.02
13,GAGATGGACT,1.01
14,GAGATGTTGC,0.992
15,GAGATTAAAT,1
16,GAGATTACT,0.99
17,GAGATTGATA,1.17
18,GAGATTGTT,0.999
19,GAGATTTTAC,1.02
20,GAGCAACCCT,1.24
21,GAGCAAGCCT,2.22
22,GAGCAAGTTT,1.04
23,GAGCAGTATA,1.04
24,GAGCAGTCCG,0.967
25,GAGCAGTTT,0.935
26,GAGCCAAACG,0.996

row,Sequence,switch fluorescence ratio
1,GAGCCAATT,1
2,GAGCCAATTG,0.979
3,GAGCCATTCA,1
4,GAGCCGCGGA,1
5,GAGCCGTTC,1.02
6,GAGCGAGCTA,1.05
7,GAGCGCCCTC,1.06
8,GAGCGCGAAT,0.956
9,GAGCGCGGAC,1.35
10,GAGCGGAGTA,1.06
11,GAGCGGGACC,1.02
12,GAGCGGTGCT,1.04
13,GAGCTAATAG,1.97
14,GAGCTACAAT,1.02
15,GAGCTACATA,1.04
16,GAGCTAGGTG,1.24
17,GAGCTGAATA,0.984
18,GAGCTTACGA,1.13
19,GAGCTTGTG,0.97
20,GAGCTTTTAT,1.03
21,GAGGAAAGGA,0.958
22,GAGGAACAGA,0.98
23,GAGGAATGGT,1.02
24,GAGGACAGTC,1.07
25,GAGGAGAGGA,0.971
26,GAGGAGGGAT,0.974

row,Sequence,switch fluorescence ratio
1,GAGGAGTTAC,1.04
2,GAGGATGTAG,0.942
3,GAGGCACTTA,1.02
4,GAGGCATACG,1.81
5,GAGGCATATG,1
6,GAGGCCGGTT,1.04
7,GAGGCCTGG,0.95
8,GAGGCGATG,1.1
9,GAGGCGCACG,1
10,GAGGCGTGAT,1.01
11,GAGGCGTGCT,1
12,GAGGCTGCCG,0.968
13,GAGGGACAG,1.02
14,GAGGGCTGCC,0.994
15,GAGGGGTGTT,0.982
16,GAGGGTAACT,0.959
17,GAGGGTACAT,1.02
18,GAGGGTCGGC,1.01
19,GAGGGTGTAC,1.02
20,GAGGTAAATC,1.03
21,GAGGTAAGAC,2.1
22,GAGGTACATA,1.06
23,GAGGTAGACA,1
24,GAGGTAGGCA,1
25,GAGGTAGTT,0.992
26,GAGGTCCGGT,0.981

row,Sequence,switch fluorescence ratio
1,GAGTAAAGGA,0.988
2,GAGTAACTGA,1.01
3,GAGTAAGAAT,1.02
4,GAGTAAGGAA,1.04
5,GAGTACAGG,1.03
6,GAGTACGACT,0.975
7,GAGTACGCGT,1.04
8,GAGTAGAGTC,1.01
9,GAGTAGCGTC,0.977
10,GAGTAGGGTG,0.965
11,GAGTAGTGGA,1.01
12,GAGTATGAGC,1.04
13,GAGTATGAGG,0.981
14,GAGTATTTAT,0.991
15,GAGTCACTA,1.03
16,GAGTCATTTG,1
17,GAGTCCGATG,1.13
18,GAGTCCTATA,0.999
19,GAGTCGTCTG,0.986

# — the supplement of paper PMC10126150
